# Data reported in the supplement of paper PMC3334620.
# In all, about 33,000 sequences were measured (“E-score (-0.5 to 0.5)”: median about -0.032, highest 2% from about 0.36 on). The list shows a part of the results.
# Target: T1, Sko1 (UniProt Q02100)
# T1 sequence: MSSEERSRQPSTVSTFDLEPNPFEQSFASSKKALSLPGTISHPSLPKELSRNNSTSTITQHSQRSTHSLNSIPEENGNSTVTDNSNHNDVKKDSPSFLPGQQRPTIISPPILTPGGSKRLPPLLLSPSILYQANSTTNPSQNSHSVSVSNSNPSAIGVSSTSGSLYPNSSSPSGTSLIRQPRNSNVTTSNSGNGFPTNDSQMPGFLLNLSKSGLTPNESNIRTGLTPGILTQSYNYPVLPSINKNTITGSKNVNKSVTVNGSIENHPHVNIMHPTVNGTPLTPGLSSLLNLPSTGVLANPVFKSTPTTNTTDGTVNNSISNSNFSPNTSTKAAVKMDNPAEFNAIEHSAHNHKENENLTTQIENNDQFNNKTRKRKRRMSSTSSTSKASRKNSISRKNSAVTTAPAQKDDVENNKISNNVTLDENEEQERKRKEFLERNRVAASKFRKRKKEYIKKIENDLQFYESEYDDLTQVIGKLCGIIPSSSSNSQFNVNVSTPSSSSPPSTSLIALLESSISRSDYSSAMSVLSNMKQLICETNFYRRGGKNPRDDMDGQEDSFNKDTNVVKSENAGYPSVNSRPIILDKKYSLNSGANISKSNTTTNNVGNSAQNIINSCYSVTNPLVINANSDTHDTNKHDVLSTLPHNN
# Test: PBM E-score (8-mer binding enrichment) (E-score (-0.5 to 0.5)); higher = stronger / more preferred TF binding; most listed sequences are background and not binding sites
# Conditions: protein concentration: 200 nM; construct: GST-full length
# How it was run: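 E-scores (a modified Wilcoxon-Mann-Whitney statistic) were assigned by the Universal PBM Analysis Suite to every ungapped eight-base word pooled with its reverse complement. The input came from universal all-10-mer Agilent arrays made double-stranded by primer extension and probed with GST-tagged yeast transcription factors at about 100-200 nM. Fluorescent anti-GST detected bound protein, and masliner normalised the scans.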
row,Sequence,PBM E-score
1,ATGCAAAA,0.116
2,GAGCCACC,-0.276
3,CCTCGAAC,-0.21
4,CTCTCGGA,-0.0819
5,CATTATGC,0.147
6,GGGACACA,-0.17
7,CCCATATA,-0.108
8,AGTGAAAC,0.0257
9,CCCATCCG,-0.166
10,CATATGAC,0.404
11,ATATTCTC,0.189
12,GAGTTACA,0.0628
13,AGTTCACG,0.16
14,CCTGGCGC,-0.133
15,CCGAGAAG,-0.268
16,CCGACAAA,-0.00364
17,CGCTTCGC,0.0438
18,AAGTTCAC,0.0404
19,CAACTCCC,-0.212
20,CGGTGAGC,-0.267
21,ATAGTGTC,-0.113
22,AACCGAAC,-0.155

row,Sequence,PBM E-score
1,CCGCTCGA,-0.161
2,CGCAAGTA,0.243
3,CCTGTCTA,-0.174
4,AATGGACA,0.118
5,TGTTATAA,0.288
6,GCGGAGAA,-0.121
7,ATTCACGG,0.095
8,GTTAAGAA,0.0211
9,AGCTAGTG,-0.00092
10,CCTCGTGA,0.0827
11,CCCTGTAC,-0.178
12,AACCCAAT,-0.105
13,CAACCCAC,0.011
14,AACACTTC,0.134
15,ATCGGCAC,0.0815
16,CTATGGGC,-0.157
17,ACCACCCT,-0.141
18,GCCCGGGA,-0.357
19,CCCCGCGC,-0.254
20,CACGTATG,0.426
21,CGGAATCA,0.15
22,AAATGGAG,0.0295

row,Sequence,PBM E-score
1,GGCCTTCA,-0.206
2,ACACGGGA,-0.135
3,CAATTTGG,0.0415
4,AACCGACA,0.0261
5,CGTACCGC,0.265
6,CTCCCACA,-0.278
7,GCTTGTCA,0.00095
8,AGCCTACC,-0.29
9,AATATACG,0.359
10,CGTGTCGA,0.106
11,GCAATAAA,0.18
12,CATAACTC,-0.106
13,CAGGCAAC,-0.0389
14,AAGTCTAC,-0.0388
15,CCGCACTC,-0.14
16,ATAAATTC,0.128
17,AACAAGGT,0.0535
18,TACTCCCA,0.0397
19,CTGGTCAC,-0.141
20,CAGGCTAC,-0.204
21,CGCATATC,0.188
22,GCCCCAGA,-0.199

row,Sequence,PBM E-score
1,CATGATCG,0.0624
2,CCACACCC,-0.158
3,CAAAGCCC,-0.131
4,AGGAGTTG,0.0436
5,ACGTGGAC,0.33
6,ACCGGACA,-0.26
7,CGGCTAGA,-0.213
8,AAGCATAT,0.173
9,AACCTTCA,-0.00061
10,AAGATACT,-0.0387
11,AATGTGGC,-0.0144
12,GCGAGCGA,-0.0692
13,ACCCTCAG,-0.21
14,ATCGCATG,0.0067
15,ATAATGTG,0.0598
16,CGTATAAG,0.211
17,ATCTGACG,0.345
18,AATAGATT,0.0542
19,CACCCTAG,0.0133
20,CGATTAAG,0.0497
